Measured values taken from the supplement of paper PMC12217912.
The list shows a part of the results. The full chains were built here from the parent and the listed change. Values near 0.05 are background.

B1: TEV protease; numbered along this chain (parent)
chain: MGESLFKGPRDYNPISSSICHLTNESDGHTTSLYGIGFGPFIITNKHLFRRNNGTLVVQSLHGVFKVKDTTTLQQHLVDGRDMIIIRMPKDFPPFPQKLKFREPQREERICLVTTNFQTKSMSSMVSDTSCTFPSGDGIFWKHWIQTKDGQCGSPLVSTRDGFIVGIHSASNFTNTNNYFTSVPKNFMELLTNQEAQQWVSGWRLNADSVLWGGHKVFMVKPEEPFQPVKEATQL

Variants of: B1
Test: raw area under fraction-flipped curve 0-4 h after induction (AUC4h, not background-subtracted), DNA-recorder readout of cleavage of the substrate (dimensionless); higher = more cleavage of the substrate by the protease variant
Details: temperature: 34 °C; time window: 0-4 h after rhamnose induction
Procedure: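 In vivo DNA recorder in E. coli TOP10(DE3) ΔrhaA at 34 °C. Each TEVp single-site mutant (parent TEVp 0) is paired with a single-site variant of the 7-mer TEVs (canonical ENLYFQ|S). The substrate sits between flexible linkers in a Bxb1-sfGFP-TEVs-SsrA fusion, so cleavage stabilises Bxb1 and speeds flipping of a recombination array, read by NGS. The value is the raw area under the fraction-flipped curve over 0-4 h after rhamnose induction (AUC4h), with ≥20 reads per time point. It is not background-subtracted; inactive controls average about 0.047.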
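Note: Bxb1 expression induced with 0.2% (w/v) L-rhamnose at OD600 near 0.5, cultures sampled hourly, flipped fraction per protease–substrate barcode pair counted by paired-end Illumina sequencing.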

Row | Variant | area with substrate EALYFQS | area with substrate ECLYFQS | area with substrate EELYFQS | area with substrate EGLYFQS | area with substrate EILYFQS | area with substrate ELLYFQS | area with substrate ESLYFQS | area with substrate EVLYFQS | area with substrate EDLYFQS | area with substrate EFLYFQS | area with substrate EHLYFQS | area with substrate ERLYFQS | area with substrate EYLYFQS | area with substrate EMLYFQS | area with substrate EPLYFQS | area with substrate EQLYFQS | area with substrate EWLYFQS | area with substrate EKLYFQS | area with substrate ETLYFQS
1 | MGESLFKGPRDYNPISSSICHLTNESDGHTTSLYGIGFGPFIITNKHLFRRNNGTLVVGSLHGVFKVKDTTTLQQHLVDGRDMIIIRMPKDFPPFPQKLKFREPQREERICLVTTNFQTKSMSSMVSDTSCTFPSGDGIFWKHWIQTKDGQCGSPLVSTRDGFIVGIHSASNFTNTNNYFTSVPKNFMELLTNQEAQQWVSGWRLNADSVLWGGHKVFMVKPEEPFQPVKEATQL [Q59G] | 0.142 | 0.0901 | 0.109 | 0.0504 | 0.0826 | 0.0849 | 0.0895 | 0.109 | – | – | – | – | – | – | – | – | – | – | –
2 | MGESLFKGPRDYNPISSSICHLTNESDGHTTSLYGIGFGPFIITNKHLFRRNNGTLVVKSLHGVFKVKDTTTLQQHLVDGRDMIIIRMPKDFPPFPQKLKFREPQREERICLVTTNFQTKSMSSMVSDTSCTFPSGDGIFWKHWIQTKDGQCGSPLVSTRDGFIVGIHSASNFTNTNNYFTSVPKNFMELLTNQEAQQWVSGWRLNADSVLWGGHKVFMVKPEEPFQPVKEATQL [Q59K] | 0.125 | – | – | – | 0.133 | 0.0893 | 0.137 | 0.0828 | 0.125 | 0.123 | 0.128 | 0.0934 | 0.144 | – | – | – | – | – | –
3 | MGESLFKGPRDYNPISSSICHLTNESDGHTTSLYGIGFGPFIITNKHLFRRNNGTLVVQCLHGVFKVKDTTTLQQHLVDGRDMIIIRMPKDFPPFPQKLKFREPQREERICLVTTNFQTKSMSSMVSDTSCTFPSGDGIFWKHWIQTKDGQCGSPLVSTRDGFIVGIHSASNFTNTNNYFTSVPKNFMELLTNQEAQQWVSGWRLNADSVLWGGHKVFMVKPEEPFQPVKEATQL [S60C] | 0.125 | 0.0846 | – | 0.0841 | 0.0821 | – | 0.122 | – | 0.133 | – | – | 0.11 | 0.11 | 0.115 | 0.13 | 0.125 | 0.0883 | – | –
4 | MGESLFKGPRDYNPISSSICHLTNESDGHTTSLYGIGFGPFIITNKHLFRRNNGTLVVQSLIGVFKVKDTTTLQQHLVDGRDMIIIRMPKDFPPFPQKLKFREPQREERICLVTTNFQTKSMSSMVSDTSCTFPSGDGIFWKHWIQTKDGQCGSPLVSTRDGFIVGIHSASNFTNTNNYFTSVPKNFMELLTNQEAQQWVSGWRLNADSVLWGGHKVFMVKPEEPFQPVKEATQL [H62I] | 0.0917 | – | – | – | 0.0663 | 0.0767 | 0.0654 | 0.104 | – | – | 0.115 | – | 0.0917 | – | – | – | 0.0816 | – | –
5 | MGESLFKGPRDYNPISSSICHLTNESDGHTTSLYGIGFGPFIITNKHLFRRNNGTLVVQSLYGVFKVKDTTTLQQHLVDGRDMIIIRMPKDFPPFPQKLKFREPQREERICLVTTNFQTKSMSSMVSDTSCTFPSGDGIFWKHWIQTKDGQCGSPLVSTRDGFIVGIHSASNFTNTNNYFTSVPKNFMELLTNQEAQQWVSGWRLNADSVLWGGHKVFMVKPEEPFQPVKEATQL [H62Y] | 0.128 | 0.0911 | 0.11 | 0.095 | 0.0895 | 0.109 | 0.116 | 0.093 | – | 0.132 | 0.116 | 0.106 | – | 0.15 | 0.118 | – | – | 0.144 | 0.12
6 | MGESLFKGPRDYNPISSSICHLTNESDGHTTSLYGIGFGPFIITNKHLFRRNNGTLVVQSLHLVFKVKDTTTLQQHLVDGRDMIIIRMPKDFPPFPQKLKFREPQREERICLVTTNFQTKSMSSMVSDTSCTFPSGDGIFWKHWIQTKDGQCGSPLVSTRDGFIVGIHSASNFTNTNNYFTSVPKNFMELLTNQEAQQWVSGWRLNADSVLWGGHKVFMVKPEEPFQPVKEATQL [G63L] | 0.0893 | – | 0.109 | 0.0895 | 0.0908 | 0.0794 | 0.0804 | 0.0787 | – | – | 0.0534 | 0.132 | 0.0577 | 0.0984 | 0.0888 | 0.0824 | 0.0828 | 0.068 | 0.104
7 | MGESLFKGPRDYNPISSSICHLTNESDGHTTSLYGIGFGPFIITNKHLFRRNNGTLVVQSLHRVFKVKDTTTLQQHLVDGRDMIIIRMPKDFPPFPQKLKFREPQREERICLVTTNFQTKSMSSMVSDTSCTFPSGDGIFWKHWIQTKDGQCGSPLVSTRDGFIVGIHSASNFTNTNNYFTSVPKNFMELLTNQEAQQWVSGWRLNADSVLWGGHKVFMVKPEEPFQPVKEATQL [G63R] | 0.128 | 0.0696 | 0.0946 | – | 0.0922 | – | 0.0794 | 0.0947 | – | – | 0.0797 | 0.0955 | – | – | 0.0669 | 0.117 | – | 0.1 | –
8 | MGESLFKGPRDYNPISSSICHLTNESDGHTTSLYGIGFGPFIITNKHLFRRNNGTLVVQSLHTVFKVKDTTTLQQHLVDGRDMIIIRMPKDFPPFPQKLKFREPQREERICLVTTNFQTKSMSSMVSDTSCTFPSGDGIFWKHWIQTKDGQCGSPLVSTRDGFIVGIHSASNFTNTNNYFTSVPKNFMELLTNQEAQQWVSGWRLNADSVLWGGHKVFMVKPEEPFQPVKEATQL [G63T] | 0.102 | 0.0967 | 0.0994 | 0.107 | 0.0965 | – | 0.0917 | – | – | – | 0.087 | 0.0947 | 0.0914 | 0.0806 | – | 0.123 | 0.0806 | 0.0745 | 0.094
9 | MGESLFKGPRDYNPISSSICHLTNESDGHTTSLYGIGFGPFIITNKHLFRRNNGTLVVQSLHGVNKVKDTTTLQQHLVDGRDMIIIRMPKDFPPFPQKLKFREPQREERICLVTTNFQTKSMSSMVSDTSCTFPSGDGIFWKHWIQTKDGQCGSPLVSTRDGFIVGIHSASNFTNTNNYFTSVPKNFMELLTNQEAQQWVSGWRLNADSVLWGGHKVFMVKPEEPFQPVKEATQL [F65N] | 0.114 | 0.0774 | – | – | 0.0949 | 0.0948 | 0.104 | 0.0853 | 0.13 | – | – | – | – | – | 0.115 | 0.131 | – | 0.0885 | –
10 | MGESLFKGPRDYNPISSSICHLTNESDGHTTSLYGIGFGPFIITNKHLFRRNNGTLVVQSLHGVFDVKDTTTLQQHLVDGRDMIIIRMPKDFPPFPQKLKFREPQREERICLVTTNFQTKSMSSMVSDTSCTFPSGDGIFWKHWIQTKDGQCGSPLVSTRDGFIVGIHSASNFTNTNNYFTSVPKNFMELLTNQEAQQWVSGWRLNADSVLWGGHKVFMVKPEEPFQPVKEATQL [K66D] | 0.114 | – | 0.105 | 0.0784 | – | – | 0.104 | 0.0852 | 0.124 | – | 0.108 | 0.095 | 0.101 | 0.115 | 0.116 | 0.0982 | 0.101 | – | 0.107
